Assay results from the supplement of paper PMC10185492.
The other results are listed elsewhere or left out. Values come from read counts of a selection and are noisy.

Tested on: SARS-CoV-2 3CLpro (nsp5)
Test: substrate phage enrichment score (protease-eluted vs HEPES control, +1 offset) (ratio); higher = better cleaved substrate
Conditions: selection round: 4; protease elution time: 15 min
Protocol: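 Random heptapeptide substrate phage display (M13 pIII fusion, heptapeptide between an N-terminal biotinylated AviTag GLNDIFEAQKIEWHE and pIII; phages immobilised on streptavidin) eluted by cleavage with 50 nM protease in 20 mM HEPES at 37 °C. Selected phages were NGS sequenced, and the enrichment score is (reads in protease sample + 1)/(reads in HEPES blank-selection control + 1).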

Substance | substrate phage enrichment score
EQYFQGG | 1.59
PQSHGRT | > 25
ATGTGAA | > 32
GSKSTHL | > 31
SERAVVL | > 22
TETKAVT | 3.15
SGRAINS | 2.12
PRQGCLT | > 40
HPHGASR | 1
TGAPSCC | > 23
VIPSVKQ | > 24
AHHARLQ | > 73
LPQSTLQ | > 31
VHSTDVI | > 26
LYFQGGI | 1.6
DSPPAHH | > 24
SQCSYHQ | 2.08
SRDWGAS | > 44
RGCISAA | > 24
LSSSYSQ | 3.4
PKQGTTP | > 23
PTFPRHH | 1.47
AGNQDTR | > 23
SNFQGGS | 0.714

Substance | substrate phage enrichment score
NVAAHHH | 0.463
VSRPDPA | > 22
SNVRSHA | 5.75
GSACQNR | 12
LRYHCKG | > 23
QNTGNLT | > 23
SLWLGQT | > 44
KHFPDGV | > 23
LNPHIMQ | 2.11
ASGSTSE | 4.2
TARGMGT | 0.5
VWCSVIE | 1.4
GCVLQAA | > 342
ERRKDKF | > 21
ALECSGW | 1.44
PTTILPS | 0.533
SHRVILQ | > 268
PRNQASP | 0.457
SAGQKWQ | > 22
RPIHHHH | 2.25
LCSNEHR | > 25
GSTWSSH | 1.09
QAAHHHH | 0.706
YRPKGFL | 2.92

Substance | substrate phage enrichment score
ITQCRGA | 0.571
WHQKTNR | > 31
SAAAHQN | 1.71
RKQREYR | 0.455
GHHVHAA | 1.46
RSTRVMQ | > 21
QCAVISQ | 0.281
SSPYRCP | 0.289
RYFQGGS | 0.557
HYFQGGS | 0.5
SSRSQQE | 1.54
LLQSSKG | 7.82
SSRWCPG | 14
RISGEGS | > 21
WPQTESC | > 49
ESLTAEC | 1.06
HNSPSGK | > 35
SGAAHHH | 0.762
DEAAHHH | 0.528
NDGGCRA | > 21
RHGGQSV | 3
DASHHRS | > 21
DPIKWTP | > 37
QPTELER | 0.0952

Substance | substrate phage enrichment score
VVSWGFM | 2.86
ASLKVPG | 2.45
CPDLDVT | 1.08
NGAGSMP | > 21
QRSGRSG | 48.2
EPKWPVY | 3.6
TTAAHHH | 1.18
TRGHSSV | 0.0213
RRPHIII | 0.721
NRAAHHH | 0.58
QWLHGQH | 4.4
WYPRTSQ | 0.2
SGRKSTN | 2.86
PTLQSNA | > 48
PKFQERQ | > 69
NSQRLYS | 0.0714
TPVPKTC | > 40
YPKQEPT | > 25
QPAAHHH | 0.707
ASTRGTK | 0.692
PECEYLR | > 22
ASASGSD | 5.64
RNMSHSG | > 22
CTLQSNL | > 24

Substance | substrate phage enrichment score
QVKPNGF | 4.14
TCGSTAA | 0.318
RAAAQQH | 0.714
ALTCHPR | 1.12
PAGNPLL | > 25
RGCQAHP | 0.158
FPGERTH | 2.16
LRRNAEC | 8
ALRVDRG | 3.17
WGSQPVS | 10.7
PAQTLTT | > 38
GSAGIER | 0.52
PIQCLNA | 1.4
SKPVTLQ | > 75
RPASLVE | > 25
QQCPAYG | 0.222
IDAAKEQ | 3
PKHTREH | 4.8
EHQYHHG | 0.212
QSILQGT | > 464
GCTHVPV | 11.7
LDIYAEK | 1.75
HGVVTVT | 2.29
NKTVADG | > 57

Substance | substrate phage enrichment score
DTECRIG | 0.412
ARLQSRS | > 61
ERSAVMQ | > 21
TEAWNEI | 2.27
FTTPKGP | 8.29
NAAAHLN | > 104
SSISSMK | > 27
FQREAPK | 3.29
HRGAILQ | 50.2
PRNNRLQ | 9.67
PIKWHLQ | > 22
ATGVVCQ | > 32
SAAAHHP | 0.763
SQMTTKP | > 27
RDRLHRQ | 1.28
CVKPYVN | > 68
CVLYKKL | 0.01
ALKSDGS | > 28
SAAAKHH | 1.17
GAINTLM | > 32
VREQGRK | 9
STPAHHH | 0.687
PNRSGLI | 0.1
TGPGELR | 10

Substance | substrate phage enrichment score
VSASRLQ | > 21
RMQTNPT | 1.91
HTSWDFR | > 21
AFWNEMR | > 40
SIMREPV | > 32
SCPGSRS | > 114
CSAVLQS | > 24
VNAPIMR | 13
HNCSGRG | 2.09
PDDETRR | 1.2
RDTANLQ | > 83
TRQSPPL | 0.643
TLYGPTG | > 29
ARMPLVQ | 9.5
PGLSALQ | > 287
KRPWRCT | > 30
SQHQAGP | 2.76
CLNLSRP | > 25
STEHGRN | > 23
SCYMMQA | > 23
VLTRSRE | 9.17
QQGVTHR | 3.4
PKTPTLS | 0.308
DVDEKGF | 4.36

Substance | substrate phage enrichment score
RPTTVLQ | > 60
PRLPSFK | > 76
PGGSAAA | 0.22
VRPTQLQ | > 74
CTMFRAL | 2.69
GHAAAHH | 0.483
SASPHPG | > 36
ASAGSRV | 1.31
NAHQQWK | 0.132
PEGTLLQ | > 40
PQSRKDR | > 46
LSNAKQG | > 37
RCQMKWP | 5.5
SENGPFG | 1.3
GTSTKLQ | > 49
MHLNGSC | 1.44
TEVTTLH | > 26
ECDVIRF | > 23
SLLRCRV | > 22
EQNLHDG | 0.917
NNEAAHH | 0.692
SKPLSTS | 6.17
ARHTGVQ | 0.136
AVAHHHH | 0.381

Substance | substrate phage enrichment score
NDRALRF | > 29
ARTSELQ | 153
TYSITQS | > 58
VTSGSSG | > 31
SSKATGK | 2.22
ASAILNR | > 24
SANCCGG | 4
KEQTPDH | 8.69
SRRGPNN | 0.969
SNLPPVN | 3.6
ACVPRLH | 3.6
EAPERGL | 13.7
PVFPPEM | > 40
SQGPSTD | 11.7
SESLRQG | 6.67
GLKRGSC | > 81
RLQSGTR | > 48
DRWKCGD | > 36
CIFRVVV | 1.76
VTNSQYP | 0.19
KSNVNSR | 6
HNNESSN | > 22
PVEATCR | > 32
RSHPKTD | 0.292

Substance | substrate phage enrichment score
SIFRVVV | 1.09
EESCSST | 2.59
GPCVLQS | > 25
GICVSKQ | > 22
ATFQGGS | 5.75
SHSVPEL | 0.276
IDPAFIP | 1
EAPATDR | 10.7
SSRGELQ | 10
VSYLQSC | > 56
ERNRLGL | 0.2
RSRTNMG | 4.67
GPTYSAK | 0.3
CKLRQGH | 0.55
CKKSKRI | 0.8
ACKDYQG | 0.381
TSTEPYS | > 23
DHKESQM | 4.75
